The values that follow come from paper PMC7349898.

Experiment in all cases: two-hybrid; Gal4 yeast two-hybrid; baits in pGBT9, preys in pGAD424; yeast strain PJ69-4A; serial dilutions spotted on -LW and -LWH with an appropriate concentration of 3-AT; 3 days at 30 °C
Experiment [1] concerns the target T1, AtIDD6 (Arabidopsis) (UniProt Q8RWX7).
T1 sequence: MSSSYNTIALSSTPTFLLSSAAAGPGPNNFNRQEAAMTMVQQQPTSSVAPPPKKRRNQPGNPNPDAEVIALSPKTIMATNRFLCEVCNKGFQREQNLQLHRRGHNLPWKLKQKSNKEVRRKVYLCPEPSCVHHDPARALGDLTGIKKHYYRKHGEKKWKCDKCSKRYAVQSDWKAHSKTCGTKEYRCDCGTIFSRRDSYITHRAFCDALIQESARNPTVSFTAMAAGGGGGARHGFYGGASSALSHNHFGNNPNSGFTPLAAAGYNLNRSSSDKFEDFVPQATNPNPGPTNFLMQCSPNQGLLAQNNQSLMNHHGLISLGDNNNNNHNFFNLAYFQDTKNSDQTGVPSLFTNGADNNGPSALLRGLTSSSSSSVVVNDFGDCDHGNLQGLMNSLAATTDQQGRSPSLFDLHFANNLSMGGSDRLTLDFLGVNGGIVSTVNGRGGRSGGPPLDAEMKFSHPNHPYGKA

For experiment [2], the target named is T2, AtIDD1 (Arabidopsis) (UniProt Q9LVQ7).
T2 sequence: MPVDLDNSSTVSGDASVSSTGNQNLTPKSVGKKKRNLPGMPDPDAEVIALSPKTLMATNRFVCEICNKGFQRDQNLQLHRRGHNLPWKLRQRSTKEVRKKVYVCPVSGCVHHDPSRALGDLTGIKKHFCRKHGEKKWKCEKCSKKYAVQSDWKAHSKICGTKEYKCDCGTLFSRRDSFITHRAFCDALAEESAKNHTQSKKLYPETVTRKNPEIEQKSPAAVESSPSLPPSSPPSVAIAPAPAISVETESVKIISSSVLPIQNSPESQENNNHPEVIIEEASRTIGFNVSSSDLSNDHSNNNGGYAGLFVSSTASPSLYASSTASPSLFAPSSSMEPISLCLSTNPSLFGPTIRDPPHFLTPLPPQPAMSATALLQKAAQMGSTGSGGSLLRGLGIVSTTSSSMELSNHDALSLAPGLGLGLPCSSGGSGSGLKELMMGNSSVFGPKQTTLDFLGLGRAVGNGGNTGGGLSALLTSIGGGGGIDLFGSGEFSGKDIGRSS

In experiment [3] the target is T3, AtIDD16 (Arabidopsis) (UniProt Q9FRH4).
T3 sequence: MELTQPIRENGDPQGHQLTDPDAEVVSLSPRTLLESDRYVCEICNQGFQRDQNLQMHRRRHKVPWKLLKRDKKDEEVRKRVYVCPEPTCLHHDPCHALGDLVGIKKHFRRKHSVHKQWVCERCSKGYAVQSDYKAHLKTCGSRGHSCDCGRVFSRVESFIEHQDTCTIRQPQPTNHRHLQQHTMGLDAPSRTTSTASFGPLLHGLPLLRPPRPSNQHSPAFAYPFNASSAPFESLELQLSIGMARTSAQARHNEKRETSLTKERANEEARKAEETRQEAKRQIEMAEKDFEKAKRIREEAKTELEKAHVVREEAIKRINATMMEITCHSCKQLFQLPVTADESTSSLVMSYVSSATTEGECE

The target in experiment [4] is T4, AtIDD10 (Arabidopsis) (UniProt Q700D2).
T4 sequence: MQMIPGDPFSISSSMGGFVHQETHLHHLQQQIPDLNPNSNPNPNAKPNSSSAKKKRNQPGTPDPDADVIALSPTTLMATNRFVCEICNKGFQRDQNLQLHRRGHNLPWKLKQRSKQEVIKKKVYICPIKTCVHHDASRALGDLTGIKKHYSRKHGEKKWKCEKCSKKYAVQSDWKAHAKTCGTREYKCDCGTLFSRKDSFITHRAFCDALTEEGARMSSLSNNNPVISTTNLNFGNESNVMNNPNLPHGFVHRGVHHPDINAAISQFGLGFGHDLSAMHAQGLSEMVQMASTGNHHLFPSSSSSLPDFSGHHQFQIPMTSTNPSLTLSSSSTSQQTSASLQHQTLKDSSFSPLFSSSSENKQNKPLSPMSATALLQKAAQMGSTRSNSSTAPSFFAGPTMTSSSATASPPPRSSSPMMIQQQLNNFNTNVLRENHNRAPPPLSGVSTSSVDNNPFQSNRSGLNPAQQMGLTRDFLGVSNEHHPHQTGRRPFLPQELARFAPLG

Results are given in words; binding and its absence hold for the method and conditions named. Some results given as binding are weak or reduced against the parent protein; the word gives no strength.

B1: AtIDD6 (protein, UniProt Q8RWX7 1-467)
chain: T1 sequence
Consider B1, for which the binding entry in experiment [1] is given as “no binding”.

B2: AtIDD1 (protein, UniProt Q9LVQ7 1-500)
chain: T2 sequence
For the molecule B2, the binding result in experiment [2] is “no binding”.

B3: AtIDD15 (protein, UniProt F4IPE3 1-445)
chain: MRTDQVMLSNKNTNTCCVVSSSSSDPFLSSSENGVTTTNTSTQKRKRRPAGTPDPDAEVVSLSPRTLLESDRYICEICNQGFQRDQNLQMHRRRHKVPWKLLKRDNNIEVKKRVYVCPEPTCLHHNPCHALGDLVGIKKHFRRKHSNHKQWVCERCSKGYAVQSDYKAHLKTCGTRGHSCDCGRVFSRVESFIEHQDNCSARRVHREPPRPPQTAVTVPACSSRTASTVSTPSSETNYGGTVAVTTPQPLEGRPIHQRISSSILTNSSNNLNLELQLLPLSSNQNPNQENQQQKVKEPSHHHNHNHDTTNLNLSIAPSSSYQHYNNFDRIKEIMASEQIMKIAMKEKAYAEEAKREAKRQREIAENEFANAKKIRQKAQAELERAKFLKEQSMKKISSTIMQVTCQTCKGQFQAVAVPAATADETSLVVSYMSSANTDGELENGF
For B3, the binding entry in experiment [3] is “binds”.

B4: AtIDD10 (protein, UniProt Q700D2 1-503)
chain: T4 sequence
B4: in experiment [4], the binding entry is on record as “no binding”.
